{"source": "the supplement of paper PMC9446081", "note": "The whole screen tested about 39,000 compounds, of which about 220 (0.56%) showed activity. The list shows a part of the results.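 Note: static incubation at 37 °C against the wild-type strain, values averaged over two biological replicates.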", "data": [{"test_system": "Escherichia coli K-12 BW25113", "assay": "relative growth (OD600 normalised to plate interquartile mean) (fraction); higher = less growth inhibition, active = 0.2 or less", "details": "50 µM; LB; incubation time: overnight (16-24 h)", "values": [{"smiles": "COc1ccc(NC(=O)Nc2ccc3c(c2)C(=O)N([C@@H](C)CO)C[C@H](C)[C@H](CN(C)Cc2ccc(Cl)c(Cl)c2)OCCCC[C@@H](C)O3)cc1", "relative growth": "inactive: 1.03"}, {"smiles": "C[C@H](CO)N1C[C@H](C)[C@H](CN(C)C(=O)Nc2cccc3ccccc23)OCCCC[C@H](C)Oc2ccc(NS(C)(=O)=O)cc2C1=O", "relative growth": "inactive: 0.974"}, {"smiles": "C[C@@H]1CN([C@H](C)CO)S(=O)(=O)c2ccc(C#Cc3cccc(F)c3)cc2O[C@@H]1CN(C)S(=O)(=O)c1ccccc1F", "relative growth": "inactive: 1.03"}, {"smiles": "COc1cc(OC)cc(C(=O)OCCCNCCNCCCOC(=O)c2cc(OC)cc(OC)c2)c1", "relative growth": "inactive: 0.932"}, {"smiles": "Cc1noc(C)c1NC(=O)Nc1cccc2c1O[C@H](CN(C)C(=O)NC(C)C)[C@@H](C)CN([C@@H](C)CO)C2=O", "relative growth": "inactive: 1.01"}, {"smiles": "CC(C)c1cccc(C(C)C)c1NC(=O)Cc1cccs1", "relative growth": "inactive: 0.853"}, {"smiles": "C[C@H](CO)N1C[C@H](C)[C@@H](CN(C)CC2CC2)Oc2c(NS(=O)(=O)c3ccccc3)cccc2C1=O", "relative growth": "inactive: 1.01"}, {"smiles": "C[C@H](CO)N1C[C@H](C)[C@@H](CN(C)C(=O)Nc2cccc3ccccc23)Oc2ccc(NC(=O)Cc3ccccc3)cc2CC1=O", "relative growth": "inactive: 0.995"}, {"smiles": "C[C@H]1CN([C@@H](C)CO)S(=O)(=O)c2ccc(C3=CCCC3)cc2O[C@H]1CN(C)S(=O)(=O)c1cn(C)cn1", "relative growth": "inactive: 0.99"}, {"smiles": "C[C@@H]1CCCCO[C@H](CN(C)S(=O)(=O)c2cccs2)[C@@H](C)CN([C@@H](C)CO)C(=O)c2cc(NC(=O)Nc3ccc(C(F)(F)F)cc3)ccc2O1", "relative growth": "inactive: 1.03"}, {"smiles": "O=C(CCn1ccc(=O)[nH]c1=O)Nc1ccc2c(c1)NC(=O)CO2", "relative growth": "inactive: 0.895"}, {"smiles": "C[C@@H]1CN([C@@H](C)CO)C(=O)c2cccc(NS(=O)(=O)c3cccs3)c2O[C@H]1CN(C)S(=O)(=O)c1ccc(F)cc1", "relative growth": "inactive: 0.996"}, {"smiles": "C[C@@H]1CN([C@H](C)CO)C(=O)c2cc(NC(=O)C3CCCCC3)ccc2O[C@@H]1CN(C)C(=O)Nc1cccc2ccccc12", "relative growth": "inactive: 1.02"}, {"smiles": "C[C@@H]1CCCCO[C@@H](CN(C)S(=O)(=O)c2ccccc2)[C@H](C)CN([C@H](C)CO)C(=O)c2cc(NC(=O)Nc3cccc4ccccc34)ccc2O1", "relative growth": "inactive: 1.03"}, {"smiles": "C[N+](C)(C)CC(O)CC(=O)[O-]", "note": "(centres undefined)", "relative growth": "inactive: 0.989"}, {"smiles": "C[C@@H]1CN([C@@H](C)CO)C(=O)c2c(c3ccccc3n2C)-c2ccccc2CO[C@H]1CN(C)C(=O)Nc1ccc2c(c1)OCO2", "relative growth": "inactive: 0.989"}, {"smiles": "COc1ccc(C#Cc2cnc3c(c2)C(=O)N([C@H](C)CO)C[C@H](C)[C@@H](CN(C)C(=O)CC2CC2)O3)cc1", "relative growth": "inactive: 1.01"}, {"smiles": "C[C@H](CO)N1C[C@H](C)[C@H](CN(C)C(=O)Nc2ccc(N3CCCCC3)cc2)OCc2cn(nn2)CCCC1=O", "relative growth": "inactive: 0.968"}, {"smiles": "C[C@H]1CN([C@@H](C)CO)C(=O)c2cccc(NC(=O)c3ccc(-c4nccs4)cc3)c2O[C@H]1CN(C)Cc1ccc(-c2ccccc2)cc1", "relative growth": "inactive: 0.963"}, {"smiles": "C[C@@H]1CN([C@H](C)CO)C(=O)CCCn2nncc2CO[C@H]1CN(C)Cc1cccc2c1OCCCO2", "relative growth": "inactive: 0.983"}, {"smiles": "COCCOC(=O)N1C(=O)[C@@]2(c3cc(C#CC4=CCCCC4)ccc31)[C@H](C(=O)NC[C@H](O)c1ccccc1)[C@H]1C(=O)O[C@H](c3ccccc3)[C@H](c3ccccc3)N1[C@@H]2c1ccc(O)cc1", "relative growth": "inactive: 1.04"}, {"smiles": "Cc1noc(C)c1NC(=O)Nc1ccc2c(c1)C(=O)N([C@@H](C)CO)C[C@@H](C)[C@@H](CN(C)Cc1ccc3c(c1)OCO3)OCCCC[C@H](C)O2", "relative growth": "inactive: 1.01"}, {"smiles": "C[C@@H]1CN([C@H](C)CO)C(=O)Cc2cc(NC(=O)Nc3ccc4c(c3)OCO4)ccc2O[C@H]1CN(C)S(C)(=O)=O", "relative growth": "inactive: 1.02"}, {"smiles": "COc1cc(O)c2c(=O)cc(C)oc2c1CC=C(C)C", "relative growth": "inactive: 0.918"}, {"smiles": "C[C@@H]1CCCCO[C@@H](CN(C)S(=O)(=O)c2cccs2)[C@@H](C)CN([C@H](C)CO)C(=O)c2cc(NC(=O)Nc3ccccc3)ccc2O1", "relative growth": "inactive: 1.02"}, {"smiles": "COc1ccc2c3c([nH]c2c1)[C@@H](CO)N(C[C@]13CN(CC2CCOCC2)C1)C(=O)Nc1c(noc1C)C", "relative growth": "inactive: 0.984"}, {"smiles": "C[C@H](O)[C@H](O)[C@@H](O)[C@@H](O)/C=N/NC(=O)c1ccccn1", "relative growth": "inactive: 1"}, {"smiles": "COCCNC(=O)C[C@@H]1CC[C@@H]2[C@@H](COc3ccc(NS(=O)(=O)c4ccc(Cl)cc4)cc3C(=O)N2C)O1", "relative growth": "inactive: 0.988"}, {"smiles": "C=CCn1c(N2CCN(c3ccc(OC)cc3)CC2)nc2c1c(=O)n(C)c(=O)n2C", "relative growth": "inactive: 0.996"}, {"smiles": "COc1ccc(CN(C)C[C@@H]2Oc3ccc(NC(=O)Nc4ccc(C(F)(F)F)cc4)cc3CC(=O)N([C@H](C)CO)C[C@H]2C)cc1", "relative growth": "inactive: 0.969"}, {"smiles": "CC(C)(N)CN1CCCCC1", "relative growth": "inactive: 0.994"}, {"smiles": "Cc1noc(C)c1NC(=O)N(C)C[C@H]1OCCCC[C@@H](C)Oc2ccc(NC(=O)Nc3ccc4c(c3)OCO4)cc2C(=O)N([C@@H](C)CO)C[C@H]1C", "relative growth": "inactive: 0.989"}, {"smiles": "COc1ccc(S(=O)(=O)N(C)C[C@H]2OCCCC[C@H](C)Oc3ccc(NC(=O)Nc4ccc(C(F)(F)F)cc4)cc3C(=O)N([C@@H](C)CO)C[C@H]2C)cc1", "relative growth": "inactive: 1.01"}, {"smiles": "O=C(O)/C=C/C(=O)O", "relative growth": "inactive: 1.02"}, {"smiles": "C[C@H]1CN([C@@H](C)CO)C(=O)c2cccc(NC(=O)C3CCOCC3)c2O[C@H]1CN(C)Cc1ccncc1", "relative growth": "inactive: 1.01"}, {"smiles": "C[C@H]1CN([C@@H](C)CO)S(=O)(=O)c2ccc(C#CCN(C)C)cc2O[C@@H]1CN(C)Cc1ccccn1", "relative growth": "inactive: 0.992"}, {"smiles": "O=C(C[C@H]1C=C[C@H](NC(=O)Cc2ccccn2)[C@@H](CO)O1)NCCc1ccncc1", "relative growth": "inactive: 0.991"}, {"smiles": "C[C@@H]1CN([C@H](C)CO)C(=O)c2cc(C#CC3CCCCC3)cnc2O[C@@H]1CN(C)C(=O)Cc1ccccn1", "relative growth": "inactive: 1"}, {"smiles": "CC(C)NC(=O)N(C)C[C@@H]1OCc2cnnn2CCCC(=O)N([C@H](C)CO)C[C@H]1C", "relative growth": "inactive: 0.99"}]}]}
